The source of these data is publication PMC12136788.

First the molecules themselves.
T1: UNK ZnF1-3 (human, UniProt Q9C0B0 31-174)
T1 sequence: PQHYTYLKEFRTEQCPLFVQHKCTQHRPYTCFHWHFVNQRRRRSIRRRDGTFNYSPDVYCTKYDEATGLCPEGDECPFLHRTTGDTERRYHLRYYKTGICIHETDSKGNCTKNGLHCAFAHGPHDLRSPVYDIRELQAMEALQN

B1: 108206848_108207304_4261_CDS_ENSMUSG00000068740_ENSMUST00000090558|mouse|control|control (ssRNA)
RNA: GGGAGUUCUACAGUCCGACGAUCCACCUCGAGAGCCACAAAGUCGUGCUUCUCAUUGAAGCGCCCAUUGUACAGCAGUAGCCCGUUACGCUCCUUGGUAGCAAACGAGAGGGCCAGGGUGAAGUGGAAGCGCUGGCGCAGGCCCAACAGAGGAUUGAGCAUCA
B2: 134337774_134337894_788_CDS_ENSMUSG00000042502_ENSMUST00000166791|mouse|control|control (ssRNA)
RNA: GGGAGUUCUACAGUCCGACGAUCCAUGUCCAGGGAGGGUGGAGGUGUGGGGUCAUGGGAUCCCUGGGCCCGACACCCCAAACCCUUCAGUCGCAUAGCCAACCGUUCCCUUGUUUCCUGGUACACACCAAGGUUGCCUCGUGCCAACAGAGGAUUGAGCAUCA
B3: chr1:220276048:220276049:+_ENSG00000067704_ENST00000302637|hu_hu|hu_hu_hu_mus_True|28_68 (ssRNA)
RNA: GGGAGUUCUACAGUCCGACGAUCGCAAAUUGCCUGGUUGGCGGGAAUUGUCCAAGGCUGGGUGGUCCAGACCAAAACGCUAACAGGGGAUGAGGCAUCUGUAAGAGAUGCCAAUUUCGGAGGAGGUCUCAGGAGGGGGAAUCUCAACAGAGGAUUGAGCAUCA
B4: chr1:244855233:244855234:+_ENSG00000121644_ENST00000302550|hu_mus|hu_hu_hu_mus_True|48_88 (ssRNA)
RNA: GGGAGUUCUACAGUCCGACGAUCCAUCAGAUGGUAGGCGUUGCCCUUGUAUUCUUUCCCCAGUUCUUCUACAAUUUUCUCUAUAUCAUCUUCUAGGAAGUCCGUACUUCCUAGAACAACAGCUUCUUUAAAUUUAAAUGUUUCCAACAGAGGAUUGAGCAUCA
B5: chrX:12193597:12193598:+_ENSMUSG00000031007_ENSMUST00000033313|mus_mus|FALSE|FALSE (ssRNA)
RNA: GGGAGUUCUACAGUCCGACGAUCACAAAGCUAGUCUCUUCUGAAAUCAACAUAGUAUUUUUAAUAAUUUUAAUAUCUCUACUAAACCACACGGAUCACCAAACUUGCAGAAGAGAUUAAAAACAGCUAGCUUGCUAGUCAUAUCAACAGAGGAUUGAGCAUCA
B6: chrX:20248820:20248821:+_ENSMUSG00000001924_ENSMUST00000001989|mus_mus|mus_mus_mus_hu_True|68_98 (ssRNA)
RNA: GGGAGUUCUACAGUCCGACGAUCGGCGAAGUCCGUCAUCACAAAGUCAGGUUCUGCCAGUGAGGCCGGCAAGGAUUUAAAGCUAAUCUUCUUAGGUACUUUGACCUGACUGACGAUGCCUCCACGGAUGUAGUCGGAGAAGUUCAACAGAGGAUUGAGCAUCA
B7: chr4:17845017:17845018:+_ENSG00000109805_ENST00000514176|hu_mus|hu_hu_hu_mus_False|38_98 (ssRNA)
RNA: GGGAGUUCUACAGUCCGACGAUCGCUCUCUUAACUUGAUCUUCAUUUAAGGAACUCUGCAAGGUUAAGUUUACUUUUCUGUAGCGCAGCUGUUUUGCUCGUCUUGGGUAAUCUCAUCUUCAUUUCUGAUGGUGGUUCAUGAUCCAACAGAGGAUUGAGCAUCA
B8: chr7:90019206:90019207:+_ENSMUSG00000057706_ENSMUST00000082237|mus_mus|FALSE|FALSE (ssRNA)
RNA: GGGAGUUCUACAGUCCGACGAUCCUUUAAUAAAGCUGCAGGGUCCUGGCUGUACAGAACUCCUGGCCCUUCCAUGAACAUUCAAAAAGGAUCCACUUGUGUUCUAGAACGAGCGCUGUAGGAACCCACCCACAAAGGGAAACACAACAGAGGAUUGAGCAUCA
B9: 222906797_222906917_2443_3pUTR_ENSG00000162819_ENST00000340934|human|control|control (ssRNA)
RNA: GGGAGUUCUACAGUCCGACGAUCAUCUUUAACUAUAAGUGACUUUUUAUUCUCCACCAGAAAAGAUAAAUGACUGAGAAUGUAAGUCUGCGCUCUGAUUAACACAAUGGAGAAACGGAAAAACUAUCUCUGUUAAAAACUGAUCAACAGAGGAUUGAGCAUCA
B10: chr4:2840174:2840175:+_ENSG00000087266_ENST00000503393|hu_hu|FALSE|FALSE (ssRNA)
RNA: GGGAGUUCUACAGUCCGACGAUCGAACUACGAUACAGCCAAACAAUGGAAGUUUUUAGCAAUGAACAUGCACAAACUAUACUACGCACAGCAACAUGAAUAAAUCUCACAGACAUAAUAACGAGCCAAAGAAGCCAGCUGCCACAACAGAGGAUUGAGCAUCA
B11: chr14:76904430:76904431:+_ENSMUSG00000022010_ENSMUST00000022587|mus_mus|mus_mus_mus_hu_True|1_68 (ssRNA)
RNA: GGGAGUUCUACAGUCCGACGAUCUGCAGCCAAAAACACCCUCGUGGAAAAAAAGAGGGAACACCAGCAGCCUGGUUUAAGCUAGAUAAAAUCUUCUGGCUUUCCGCAGCCCAGGGAGAAACAGAAAACGGCAGCCCUCGAGUGCAACAGAGGAUUGAGCAUCA
B12: chr5:71493517:71493518:+_ENSG00000131711_ENST00000296755|hu_hu|FALSE|FALSE (ssRNA)
RNA: GGGAGUUCUACAGUCCGACGAUCUUCUUUUAUUGGUGCAAAGUCUGUGCUUUUCCCUUCCUGUUUGUCUUGGUAAAGACUAGUAGAAGUCAUUUCAGAAACUGGACUUACUUGGUCUGGAGAGCCUUGUUUUCCACUCUUUUCCAACAGAGGAUUGAGCAUCA
B13: chr15:80044675:80044676:+_ENSMUSG00000042428_ENSMUST00000044970|mus_hu|FALSE|FALSE (ssRNA)
RNA: GGGAGUUCUACAGUCCGACGAUCCCUCUUCCAUCCAUACACAAGCAUGUAUUUACAGGGACACAGCAAUACAGACAUGUACAAAUACACACCAAGCAUGCACCCAUGCCCAUAAAUAUACACACACACACGCACAAACAUGAGCAACAGAGGAUUGAGCAUCA
B14: 116090195_116093479_488_CDS_ENSMUSG00000029518_ENSMUST00000031492|mouse|control|control (ssRNA)
RNA: GGGAGUUCUACAGUCCGACGAUCACAGUUCUGGUUGAUUUCAUGAAGCCAUCGCUUGACGUUGACAAAGGACUCGGCACUAGUGACGUCGUAAACCACAAUGACCCCAUGGGUCCCCCGAUAAUACGUAGAGGUGAUGGUGCGCAACAGAGGAUUGAGCAUCA
B15: chr3:176740097:176740098:-_ENSG00000177565_ENST00000430069|hu_mus|hu_hu_hu_mus_True|28_38 (ssRNA)
RNA: GGGAGUUCUACAGUCCGACGAUCUGUUUUGUAUACCACAAAAGGAGGCACUUUCAGUAUCUGCAAAAGGUGUUUAGUCCUAAAACAUACUCACCUAGAGAAUAAUUAAAACAGAAUAUCUGUUACACUCUAAGACCUACUCCACAACAGAGGAUUGAGCAUCA
B16: chr3:10015032:10015033:+_ENSMUSG00000027533_ENSMUST00000029046|mus_mus|mus_mus_mus_hu_True|8_88 (ssRNA)
RNA: GGGAGUUCUACAGUCCGACGAUCGUUUUUACCAUCACAAGUGAUGAUACAGUCUGGCUUGGCCAUUGCGCCCAUUUUUCGCAAAGCUAUUCCCACUCCUAGCUCCUUCAUGUAUUCAUCAAAGCCUUGGCUUUCCACCAGGCGCAACAGAGGAUUGAGCAUCA
B17: 149829854_149829974_897_CDS_ENSG00000168280_ENST00000414838|human|control|control (ssRNA)
RNA: GGGAGUUCUACAGUCCGACGAUCUUUCUCCUCUGUAGAGAUGCCAGCAACAACAGGAGCAAUAUUGUCUAUGAUGGGGGUGUUAUCACAAGGCUCCAGGUUCUUCUGGUCCUUGGCACUGAUCUGUUCAUCCUCAGGCACAGCCAACAGAGGAUUGAGCAUCA
B18: 6220086_6224093_530_CDS_ENSMUSG00000025907_ENSMUST00000027040|mouse|control|control (ssRNA)
RNA: GGGAGUUCUACAGUCCGACGAUCCUGAAUAGCAAUCUUGUAUUUGCUUUGAAUGGCAUGCUUAAGAUCAGCCACAGUUUGCACAGUUAGCUCAGUGUCAAAUGUCAGCGUGGUUCCGGUGUUAACCAGAAACACAUAUAACUUCAACAGAGGAUUGAGCAUCA
B19: chr6:72791194:72791195:-_ENSMUSG00000055239_ENSMUST00000068697|mus_mus|FALSE|FALSE (ssRNA)
RNA: GGGAGUUCUACAGUCCGACGAUCUGAGUUAUGGUGCAGAUGUGUCUGAAAUGACCACAGCUGGAAAACGAACUUCUGAAACUUCUCAACAACCAAUUAAAAAAAGAAAACCCCACCGGCCUUGACCUCUGGUGUACCAGGAGCCAACAGAGGAUUGAGCAUCA
B20: chr6:83430385:83430386:-_ENSMUSG00000014554_ENSMUST00000014698|mus_hu|FALSE|FALSE (ssRNA)
RNA: GGGAGUUCUACAGUCCGACGAUCUUGGGAGACACAACAUUUUUCUAGCUUCAGAAAGUCAGGGAGCCCAGAUCACAGCCUGAACUUCAUGGUAUUGGUUACAGAUUCUUUACAAAGGUGUUUACCUCUCUCAUGAGGUCUUCUCAACAGAGGAUUGAGCAUCA
B21: 72544383_72546128_1578_3pUTR_ENSMUSG00000031858_ENSMUST00000050561|mouse|control|control (ssRNA)
RNA: GGGAGUUCUACAGUCCGACGAUCGCAGGUACCACCAUGUUGUUACUCUCCCUGUGAUUUCCCAACACAUAGAAGAUGUGACCCAGCAGCACAAGGGAGCAGGCUGUGAGGCGGUUCAGGUCCUCUGCAUUUGACAUCUUCAGACAACAGAGGAUUGAGCAUCA
B22: chr1:163117127:163117128:-_ENSG00000143248_ENST00000313961|hu_mus|hu_hu_hu_mus_False|1_48 (ssRNA)
RNA: GGGAGUUCUACAGUCCGACGAUCUGCUACAAAGGAUGUAACUCAACUCACAGGGCAACUUUUGGAAGCCUGACCAGAUGACUACUUGAUUAACUCCUUAUAAAAUUCAGAGCGCACAAAGCGGGGCAGAGAAUCCUUUUCCAUCAACAGAGGAUUGAGCAUCA

Some of the results follow.

For this experiment, the target named is T1, UNK ZnF1-3. Nature of the experiment: nsRBNS (natural sequence RNA bind-n-seq); RBNS binding buffer (assumed for nsRBNS): 25 mM Tris pH 7.5, 150 mM KCl, 3 mM MgCl2, 0.01% Triton X-100, 500 ug/ml BSA, 20 U/ml SUPERase-In, 4 C; UNK is unkempt and MSI1 is Musashi-1; names of the RNAs are library labels; protein concentration not given here; high values mean tight binding.
B1 yielded a binding signal of 1.09 enrichment R.

The molecule B2 registered a binding signal of 0.426 enrichment R.

In turn, B3 showed a binding signal of 2.94 enrichment R.

In turn, B4 showed a binding signal of 1.19 enrichment R.

On to B5, for which the binding signal came out at 1.86 enrichment R.

Regarding B6, the binding signal came out at 0.755 enrichment R.

In the case of B7, the binding signal stood at 0.334 enrichment R.

In the case of B8, the binding signal was found to be 0.939 enrichment R.

As to B9, the binding signal was determined as 0.749 enrichment R.

Consider B10, for which the binding signal was 1.58 enrichment R.

For B11, the binding signal came to 1.76 enrichment R.

Turning to B12, the binding signal was 0.419 enrichment R.

In turn, B13 returned a binding signal of 1.52 enrichment R.

B14 returned a binding signal of 0.748 enrichment R.

As to B15, the binding signal turned out to be 0.696 enrichment R.

In turn, B16 showed a binding signal of 0.662 enrichment R.

For B17, the binding signal worked out at 1.43 enrichment R.

B18: the binding signal stood at 0.601 enrichment R.

Consider B19, for which the binding signal is 1.5 enrichment R.

As to B20, the binding signal was 0.715 enrichment R.

Molecule B21 yielded a binding signal of 1.11 enrichment R.

On to B22, for which the binding signal came to 1.25 enrichment R.
